Reference: PMC4336329 (PLoS ONE, 2015)
Out of some 310,000 compounds screened, about 14,000 (4.5%) showed an effect of 50% or more. Effects have a minus sign here. Some of the results follow.

biological target: human ether-à-go-go-related gene (hERG) potassium channel (human, UniProt Q12809); experiment: primary screen, population patch clamp on CHO cells stably expressing hERG
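Also: peak tail current of the secondary pulse compared with the same well before compound.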

human ether-à-go-go-related gene (hERG) potassium channel, sequence (Q12809 whole entry, looked up): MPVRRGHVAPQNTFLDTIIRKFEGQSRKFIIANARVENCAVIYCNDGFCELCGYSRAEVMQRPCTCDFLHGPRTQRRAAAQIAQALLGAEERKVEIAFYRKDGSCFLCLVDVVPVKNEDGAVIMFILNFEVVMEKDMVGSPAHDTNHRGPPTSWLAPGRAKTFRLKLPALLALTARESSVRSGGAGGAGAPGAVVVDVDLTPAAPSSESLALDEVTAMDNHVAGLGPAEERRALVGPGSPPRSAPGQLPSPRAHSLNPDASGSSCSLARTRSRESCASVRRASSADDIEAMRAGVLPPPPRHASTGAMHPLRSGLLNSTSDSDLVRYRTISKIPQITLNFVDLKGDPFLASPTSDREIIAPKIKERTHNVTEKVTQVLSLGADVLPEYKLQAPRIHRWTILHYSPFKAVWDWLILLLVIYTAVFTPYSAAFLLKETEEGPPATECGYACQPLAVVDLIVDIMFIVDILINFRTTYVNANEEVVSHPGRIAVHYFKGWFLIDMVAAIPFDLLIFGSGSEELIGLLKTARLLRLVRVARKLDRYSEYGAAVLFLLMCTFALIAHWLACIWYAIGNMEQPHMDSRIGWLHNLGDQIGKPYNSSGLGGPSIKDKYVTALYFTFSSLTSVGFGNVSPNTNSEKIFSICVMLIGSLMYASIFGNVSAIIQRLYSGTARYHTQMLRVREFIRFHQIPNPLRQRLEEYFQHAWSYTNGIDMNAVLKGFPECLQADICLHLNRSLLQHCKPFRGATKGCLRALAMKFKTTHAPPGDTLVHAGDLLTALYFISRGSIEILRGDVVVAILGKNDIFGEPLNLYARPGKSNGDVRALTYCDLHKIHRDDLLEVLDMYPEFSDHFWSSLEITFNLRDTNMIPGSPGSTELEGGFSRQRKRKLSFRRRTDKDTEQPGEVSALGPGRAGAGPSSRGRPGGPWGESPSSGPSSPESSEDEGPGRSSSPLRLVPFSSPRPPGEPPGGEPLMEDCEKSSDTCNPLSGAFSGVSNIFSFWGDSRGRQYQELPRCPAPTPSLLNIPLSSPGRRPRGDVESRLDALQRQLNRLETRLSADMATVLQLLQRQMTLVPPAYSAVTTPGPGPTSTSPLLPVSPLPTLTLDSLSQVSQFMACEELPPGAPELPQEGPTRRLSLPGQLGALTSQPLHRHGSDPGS

SMILES | hERG current change (%, negative = inhibition) at 10uM [%]
CC1CCCCC1NC(=O)c1ccc2c(c1)OCCO2 (centres unmarked) | 3.51
O=C(Nc1ccc(S(=O)(=O)N2CCCC2)cc1Cl)C1=COCCO1 | -17.7
CCNC(=O)c1cc(Br)ccc1Cl | 12.1
Cc1ccc(NS(=O)(=O)c2ccc(NC(=O)c3cccc(NC(=O)C(C)C)c3)cc2)cc1 | 3.7
CNC(=S)N/N=C(\C)c1ccc(C(C)(C)C)cc1 | -16
Cn1cc(Br)c(-c2cccc(NC(=O)CCCC(=O)O)c2)n1 | 6.24
CCn1c(COc2cc(C)cc(C)c2)nnc1SCC(=O)N1CCN(c2ccccc2)CC1 | 12.7
CCN(CC)CCNC(C(=O)Nc1cccc(C(C)=O)c1)c1ccccc1.O=C(O)C(=O)O (centres unmarked) | -79.1
O=C(CN(C(=O)CCC(=O)Nc1nccs1)c1ccc2c(c1)OCCO2)NCc1ccco1 | 17.8
O=C1NC(=O)N(c2ccccc2)C(=O)/C1=C\c1ccccc1[N+](=O)[O-] | 21.8
CCCCC(=O)N/N=C/c1ccc(Sc2cccc3cccnc23)o1 | 5.02
CN1C(=O)NC(c2ccc(O)cc2)C(C(=O)c2cccs2)C1(O)C(F)(F)F (centres unmarked) | -17.5
CC(=O)Nc1ccc(NC(=O)c2nc(-c3ccccc3)oc2C)cc1 | 27
Cl.O=C(Nc1cccc(C(F)(F)F)c1)c1cccnc1N1CCN(c2ccccc2)CC1 | 7.25
COc1ccc(NC(=S)N(CCc2c(C)[nH]c3ccc(C)cc23)Cc2cccnc2)cc1 | -25.6
COc1ccc(S(=O)(=O)NCCC(C)C)cc1C | -18.2
N=C1C(c2ccccc2)=C(O)CN1c1cccc(S(=O)(=O)N2CCOCC2)c1 | 7.63
CC1=NNC(=O)C1CC(=O)N/N=C/c1ccncc1 (centres unmarked) | 26.5
COc1ccc(C2CC(c3ccccc3)Nc3nc(NC(=O)c4ccco4)nn32)cc1 (centres unmarked) | -64.4
COCCN(C(=O)COC(=O)CCOc1cccc(C)c1)c1c(N)n(Cc2ccccc2)c(=O)[nH]c1=O | 21
CCOc1ccc(/C=C\c2nc(O)c([N+](=O)[O-])c(=O)[nH]2)cc1OCC | 10.9
C=CCn1c(-c2ccc(OC)c(OC)c2)cs/c1=N\c1ccccn1 | 13.2
NC1=NC(c2ccc(Cl)cc2)C(C(=O)c2ccccc2)N1 (centres unmarked) | -1.57

SMILES | hERG current change (%, negative = inhibition) at 10uM [%]
O=C(OCC(=O)c1cccs1)c1cccc(C(=O)OCC(=O)c2cccs2)n1 | -4.01
CN(CCCC1CCCC1)C(=O)c1cc(COc2ccc(F)cc2F)on1 | 14.4
CCn1cc(C(=O)c2ccccc2)c2ccccc21 | -16.2
COc1ccccc1C1NC(=O)NC(C)=C1C(=O)OCc1ccccc1 (centres unmarked) | 2.94
Cc1ccc(-c2csc3nc(SCC(=O)N(C)C)n(Cc4ccccc4)c(=O)c23)cc1 | -26
O=[N+]([O-])c1ccc(Cl)c(-c2ccc(/C=N/n3cnnc3)o2)c1 | 1.67
O=C(O)CCC(=O)Nc1ccc(C(=O)N2CCCCC2)cc1 | 20.6
Cc1ccc2c(c1)CCCN2CC(=O)Nc1cccc(S(=O)(=O)N2CCCC2)c1 | -10.4
O=C(Nc1ccc(N2CCCCCC2)cc1)c1ccccc1Cl | -16.2
COC(=O)CN(C#N)c1nc(NC(C)C)nc(NC(C)C)n1 | 1.13
CC(C)(C)Nc1nc(N)nc(Cl)n1 | 5.87
CC(C)=CCN1CCN(Cc2cnc(-c3ccccc3)s2)CC1CCO (centres unmarked) | -49.2
COc1ccc(Br)cc1/C=C/c1ccc2cccc(O)c2n1 | 17.3
O=C(COC(=O)c1ccc(Cl)cc1Cl)Nc1cccc(S(=O)(=O)NC2=NCCC2)c1 | -23.3
CCC(Sc1nc(=O)cc(N)n1-c1ccccc1)C(=O)Nc1cc(C)on1 (centres unmarked) | 7.88
Cc1ccc(N(CC(=O)NC2CCCC2)C(=O)CCC(=O)Nc2ccccn2)cc1C | 14.9
CCCCNC(=O)c1ccccc1SCC(=O)NC1CCCCCCC1 | -16.8
CCc1nc(CN(C)C(=O)C2CCC(=O)N(Cc3cccc(F)c3)C2)no1 (centres unmarked) | 3.44
Cc1cc(Br)ccc1S(=O)(=O)n1ccnc1C | -1.89
COc1cccc(C(=O)N/N=C/c2cn[nH]c2-c2ccc(OC)cc2OC)c1 | -5.87
CN(C)C(=O)c1ccc(Nc2ncnc3sc4c(c23)CCCCC4)cc1 | -22.3
Cn1cccc1CC(=O)NNC(=S)NC(=O)c1ccc(F)cc1 | -10.6
CCC(C)NC(=O)C1CCN(S(=O)(=O)c2ccc3c(c2)CC(C)N3C(C)=O)CC1 (centres unmarked) | 1.35

SMILES | hERG current change (%, negative = inhibition) at 10uM [%]
CC1=CCC2(CO)COC(c3ccccc3O)C1C2 (centres unmarked) | -6.82
COc1ccc(CN2CCC(n3nccc3NC(=O)C3CC3)CC2)c(OC)c1OC | -51.4
CCCc1nnc(NC(=O)C2CC(=O)N(C3CCCC3)C2)s1 (centres unmarked) | 10.6
Cl.c1ccc(CN(CC2=NCCN2)c2ccccc2)cc1 | -29.7
CN(C)c1ccc(/C=C/C#N)cc1 | -4.61
O=C(CCN1C(=O)C2CCCCC2C1=O)Nc1nc2c(F)cc(F)cc2s1 (centres unmarked) | 11.7
CN1C(=O)NC(c2cccc([N+](=O)[O-])c2)C2=C1CC(C)(C)CC2=O (centres unmarked) | 9.63
C/C(=N/NC(=O)c1nnn(-c2nonc2N)c1COc1ccccc1)c1ccccc1 | 10.2
Cc1cc(C)n(-c2cccc3cccnc23)n1 | 14.5
CC(=O)c1c(C)oc2ccc(N(C(C)=O)S(=O)(=O)c3ccc(Cl)c([N+](=O)[O-])c3)cc12 | 6.82
COc1ccccc1C1CC(c2ccc(Cl)cc2)Nc2ncnn21 (centres unmarked) | -44.8
Cc1c(N(CC(=O)O)S(=O)(=O)c2ccccc2)c(=O)n(-c2ccccc2)n1C | 24.5
Cc1noc(C)c1CCC(=O)NC1CCCN(Cc2ccc(CC(C)C)cc2)C1 (centres unmarked) | -66.8
Cc1ccc2c(c1)c1c3n2CCN(CC(N)=O)C3CCC1 (centres unmarked) | 25.6
COc1ccc2sc(-c3ccccc3OC)c(-c3ccc4c(c3)OCCO4)c2c1 | 17.2
COc1ccc(-c2n[nH]c(=S)n2Cc2ccccc2)cc1 | -5.21
Cc1ccc(C(=O)CSc2n[nH]c(C)n2)cc1 | 12.7
Cc1ccccc1N=Cc1cc2c(cc1O)OC(N)=C(C#N)C2c1ccccc1 (centres unmarked) | -1.79
CO/N=C/c1c(C(=O)OC)nn(-c2ccccc2)c1Cl | 7.68
CCOC(=O)c1cn(Cc2ccc(C)cc2)nn1 | 6.34
COc1ccc(CN2CCN(C(=O)CCC(=O)Nc3nnc(C(C)C)s3)CC2)cc1F | -6.95
Cc1ccccc1NC(=O)C(=O)NCCc1ccccc1 | 8.13
O=C(NC(=S)N1CCOCC1)C12CC3CCC(CC(C3)C1)C2 | 13.2

SMILES | hERG current change (%, negative = inhibition) at 10uM [%]
O=C(CN1CCOCC1)Nc1ccccc1F | 0.862
O=C(O)c1ccccc1-c1ccccc1C(=O)Nc1cccc(Br)c1 | 8.66
Cl.O=C(NCCCn1ccnc1)C1c2ccccc2Oc2ccccc21 | -20.1
CCC(C)(C)n1nnnc1C(c1ccccc1)N1CCc2ccccc2C1 (centres unmarked) | -18.9
CSc1nc2c(c(=O)[nH]1)C(c1cccs1)C1=C(CCCC1=O)N2 (centres unmarked) | 4.91
CCn1cc(C(=O)NCCCN2CC(C)CC(C)C2)c(=O)c2cc(S(=O)(=O)N(C)C)ccc21 (centres unmarked) | -55.5
COc1cc2ncnc(NCc3ccccc3F)c2cc1OC | 6.91
CC(C)C[C@@H](COc1ccccc1)N1CCN(CC(C)C)CCC1=O | -48.5
CCN(CC)S(=O)(=O)c1ccc(NN=c2c(=O)c3ccccc3c2=O)cc1 | -0.653
CC(C)(C)c1cc(C(=O)N/N=C/c2ccccn2)n[nH]1 | 0.82
O=C(CSc1cccc[n+]1[O-])C12CC3CC(CC(C3)C1)C2 | 9.58
CCN1C(=O)C(O)(CC(=O)C(C)(C)C)c2cc(Br)ccc21 (centres unmarked) | 4.25
Br.Cn1nc(-c2ccc(OCC(=O)N3CCN(Cc4ccccc4)CC3)cc2)c2ccccc2c1=O | -42.2
NC(=O)CC(NC(=O)c1ccc(Br)cc1)c1ccc(NC2CCCCCCC2)c([N+](=O)[O-])c1 (centres unmarked) | 2.85
Cc1ccc(-c2nnc(N3CCCCC3)c3ccccc23)cc1S(=O)(=O)NCC1CCCO1 (centres unmarked) | -16
O=c1c2[nH]c3ccc(F)cc3c2ncn1CCN1CCOCC1 | -41.1
COc1cccc(C(=O)N2CCSC2=S)c1 | -4.11
COc1cc(SC)ccc1C(=O)OC(C)C(=O)Nc1ccc(NC(C)=O)cc1 (centres unmarked) | 1.82
COc1ccc(CCNC2=CC(=O)N(c3ccc(F)cc3)C2=O)cc1 | 11.3
Cc1cccn2c(=O)c3cc(C(=O)NCCCOC(C)C)sc3nc12 | -6.24
